# Laboratory results published in the supplement of paper PMC12632987.
# The full ranking holds about 4,500 sequences; the median of “median log2 fold change of GCK-ALFA target abundance (FLAG IP / Myc IP barcode read proportion)” is about 0.078, and the lowest 2% start at about -0.6. Some of the results follow.
# B1: GBRAP_39_5635 (protein)
# chain: EEEEEIELLESLAEAELAKRLVETGLSLEELYEKLLKEALEKAKDDPELKKLIEELDKLAKEKGEEAKEKLTAILALLLSGEPLEDVKKLLKAKIEELKK
# B2: GBRAP_159_3965 (protein)
# chain: MEAKLAAARALAAEAGLSPEATAEILEAVELYEEGESDGSVAAHLYHAIVKHGMTVEQVRAVARFFKSLGLDEALELTAFLLEESGLEEQAAAIRAVLAE
# B3: GBRAP_83_6949 (protein)
# chain: KEKLVVAANDDNVEKAVEIAEELAKTGKYDVTLEFIGTVEAAEKLIEEVEKAWKKGVKMDVEVLLEGATEEEVKKVKEKFEKAAKEAGADVKVEVHALPK
# B4: GBRAP_160_4259 (protein)
# chain: EEKRKELIKDVEEDKKEILELVDKESAEEVRTFAVVELGSHIMEAIDEGVVSDEEEEELEEIRDELEEELEKNKNGSKEKIKEIIEKHFEKAIELLKKAK
# B5: GBRAP_74_6555 (protein)
# chain: SAALLAQARALKAAKDLAGLIALAEANVDKVTPAEAAELLTILTTAVVEHGDEMTDEQLERAMDAIVALELKIPNEDITDELADNIAKAVAIAVEREKKL
# B6: GBRAP_184_5057 (protein)
# chain: AIKEETIKAETLEELKKKLEELKEKLKNFKGELIVLVEIPKFTKEMIETLMKTLKEILDEGYVDSVTVGLDGEMSEEVIDLAIKLAKEAGIKLTIALEEE
# B7: GBRAP_80_6850 (protein)
# chain: AEAALAAALAALAAVLPEGAATAKRIVELALALGVPKAVITDLLNALTELAKVDPEKAKALLEELLADIEEEAAAGDRANAEAVLRGYAGEALLEAEELE
# B8: GBRAP_184_5240 (protein)
# chain: KILEKTVEAENAEELKEKLEEIKKEAEKAGAKVRLLIKVKELTKEKAETLAEMIKEMAKAGLIELVGIVSSEPISEENIDLLVKAADEAGVKLVIAEPEI
# B9: GBRAP_122_2952 (protein)
# chain: NSEEEVEKMVEETMKEAEKKDPAETIVKAIKEAAEKLDEESVIEFARKLKEKAIEKGWEAEAAKAFATAALWLEKEKPELANAADELAELADELFDLLLE
# B10: GBRAP_78_6690 (protein)
# chain: EIEELLDKAIEELGKAAKILAKMNTEEALDLLGKVIDAASILEEALLGETKLEDLKEALAELKEVAKELKKIDTPEAKEALKHVEKAIKYVEKAIKLLEK
# B11: GBRAP_43_5773 (protein)
# chain: SKELVEGALDFALLAAESPEIPEETKVKAIIAAFRLAADEGYADRELVKKVVEAAAKNLSAESLKKILEELKEIAEKHPELKEVFDEAAEILEKAIKEKE
# B12: GBRAP_55_6433 (protein)
# chain: SEDEELDKELSEDMMEVAAGLIEDPEAMERVLTRLAKDLAGKTIYITKEALDLLETEEERREFLRRVVEAAKAEKKIKGIELIDASEEDKELLEEAKKEV
# B13: GBRAP_83_6881 (protein)
# chain: KEEIVVAGPDDHVEELVEIAIDLHKEEGYEVTIEILVTEEGIEKVLEAIERLAKEGVDTEVILHGEGLSKEKLEELEKKAKEIAKKYGSNIKIKVLLDEP
# B14: GBRAP_125_3142 (protein)
# chain: MKAKLIALAEALARALGLSEEEIAELRELAEASDPAQTIVAILLAAGFEEEAELAREVLPKLTEEELEELTELARSLEGKSLEELREALLKKLKELKEKL
# B15: GBRAP_160_3987 (protein)
# chain: EEKLEELIEFIEEETEEIKEMIKGQSHEERVVIIEGGMGEIIMELSSEESVSDEAEEKIAEIGDELVETIRKNPELSYEEIVELIDKAREEMIEILKKDF
# B16: GBRAP_11_2865 (protein)
# chain: KKEKLKEIAELLEEAEKVLEELLKEGTENEKLYKEALELLKKILELVKKYSDEADKKLAEEALKLLEEAKKNPEKAEEYVKQALAFVRVLRGNVLLDIEE
# B17: GBRAP_160_4689 (protein)
# chain: SEKLKEAKKFIKEEFDFVVSLWPDVSKEELAAAVRVAFGQIKLELEELGLLTEKVDKTIDEEEDKIVAAILANPNITKEELKAMLDAAAKKIFAELEKES
# B18: GBRAP_39_5673 (protein)
# chain: EEEEENEDVVSYLEGVAAKYLYETGKSLEEAYEEAKKILEKYAKENPELKELLEKLIKIAEEKGEEAKLVLIGIAVLIKEGTPKEEIKKLIEKVIKYFES
# B19: GBRAP_11_2870 (protein)
# chain: SKEALKKIAELAEELAKAIEQLLKEGVDNEELRKKITELLEELAELVKKHGDKAMQKLAEIAKELWEKALADPENAEQYLKEMLATVRVLAGQALLALEE
# Biological target: GABARAP, O95166
# Sequence (O95166 whole entry, the tested form may be a part): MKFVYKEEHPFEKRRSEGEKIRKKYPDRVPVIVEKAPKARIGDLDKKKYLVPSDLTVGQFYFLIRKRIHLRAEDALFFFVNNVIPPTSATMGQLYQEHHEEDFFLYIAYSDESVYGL
# Assay: median log2 fold change of GCK-ALFA target abundance (FLAG IP / Myc IP barcode read proportion) (log2 ratio); each designed protein is fused to an ALFA-tag nanobody in HEK293 cells to bring the named protein to FLAG-tagged glucokinase (GCK); Myc marks an untargeted standard; higher = target protein stabilised (more abundant)
# Conditions: target protein: 3xFLAG-MCP-GCK-ALFA reporter; HEK293 landing pad (RPLP)
# Description: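 LABEL-seq trans screen in HEK293 landing-pad cells. Each de novo designed 100-aa effector handle, binding the indicated effector (E3 ligase, DUB or autophagy protein), is fused to a constant NbALFA target handle and induced with 2 ug/mL doxycycline. A FLAG-MCP-GCK-ALFA target and a Myc-MCP standard reporter were transfected, and after 48 h circRNA barcodes were recovered by anti-FLAG and anti-Myc IP and sequenced. The value is the median across barcodes (at least 3 per design) of log2(FLAG/Myc read-proportion ratio), with the two transfection replicates pooled. Negative values mean degradation and positive values mean stabilisation of the target.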
row,Binder,median log2 fold change
1,B1,0.452
2,B2,0.1
3,B3,0.281
4,B4,0.165
5,B5,0.199
6,B6,0.0533
7,B7,0.0781
8,B8,0.168
9,B9,0.0747
10,B10,-0.0248
11,B11,0.103
12,B12,0.0781
13,B13,-0.148
14,B14,0.151
15,B15,-0.283
16,B16,0.211
17,B17,-0.0037
18,B18,0.136
19,B19,-0.267
